# Measurements as given in PubChem BioAssay (Tox21).
# “And” between values parts separate entries of the source, which are not always exact repeats. Equal entries are not always repeated. The shares of active, inactive and inconclusive entries below differ from those in the screen. Potencies beside an inconclusive call are fits to weak or partial responses and may not hold up. The source made the active and inactive calls. Unless noted, calls come from the whole dose curve; as a rule, active = well fitted cell-killing curve with a large enough effect in the repeat runs; inconclusive = weak or mixed curves; inactive = no such curve, though single readings can be large or run the other way.
# System: not listed separately
# Assay: qHTS assay to identify small molecule antagonists of the androgen receptor (AR) signaling pathway - cell viability counter screen (AID 743033; note: nearly all actives have a fitted effect of over 45% in size)
# Details: AR-bla HEK293 viability, CellTiter-Glo luminescence, 16 h; series mostly up to 58.5 µM
# Potency is the fitted concentration of half-maximal effect; tags give direction and shape of the fitted curve.
row,Structure (SMILES),Potency
1,IC(I)=C(I)I,active: 12.3 µM
2,CC(C)(O)C(=O)Nc1ccc([N+](=O)[O-])c(C(F)(F)F)c1,"inconclusive: 19.9 µM [cytotoxic, partial curve] and inconclusive: 45.1 µM [cytotoxic]"
3,CC(C)=CC1C(C(=O)OCc2cccc(Oc3ccccc3)c2)C1(C)C (centres undefined),inactive
4,COP(=S)(OC)SCn1nnc2ccccc2c1=O,"inconclusive: 54.9 µM [cytotoxic, single point]"
5,COP(=O)(OC)O/C(=C/Cl)c1cc(Cl)c(Cl)cc1Cl,"inconclusive: 41.1 µM [cytotoxic, partial curve]"

# Biological target: Androgen receptor (Homo sapiens) (UniProt P10275)
# Sequence of UniProt P10275 (P10275 whole entry, looked up): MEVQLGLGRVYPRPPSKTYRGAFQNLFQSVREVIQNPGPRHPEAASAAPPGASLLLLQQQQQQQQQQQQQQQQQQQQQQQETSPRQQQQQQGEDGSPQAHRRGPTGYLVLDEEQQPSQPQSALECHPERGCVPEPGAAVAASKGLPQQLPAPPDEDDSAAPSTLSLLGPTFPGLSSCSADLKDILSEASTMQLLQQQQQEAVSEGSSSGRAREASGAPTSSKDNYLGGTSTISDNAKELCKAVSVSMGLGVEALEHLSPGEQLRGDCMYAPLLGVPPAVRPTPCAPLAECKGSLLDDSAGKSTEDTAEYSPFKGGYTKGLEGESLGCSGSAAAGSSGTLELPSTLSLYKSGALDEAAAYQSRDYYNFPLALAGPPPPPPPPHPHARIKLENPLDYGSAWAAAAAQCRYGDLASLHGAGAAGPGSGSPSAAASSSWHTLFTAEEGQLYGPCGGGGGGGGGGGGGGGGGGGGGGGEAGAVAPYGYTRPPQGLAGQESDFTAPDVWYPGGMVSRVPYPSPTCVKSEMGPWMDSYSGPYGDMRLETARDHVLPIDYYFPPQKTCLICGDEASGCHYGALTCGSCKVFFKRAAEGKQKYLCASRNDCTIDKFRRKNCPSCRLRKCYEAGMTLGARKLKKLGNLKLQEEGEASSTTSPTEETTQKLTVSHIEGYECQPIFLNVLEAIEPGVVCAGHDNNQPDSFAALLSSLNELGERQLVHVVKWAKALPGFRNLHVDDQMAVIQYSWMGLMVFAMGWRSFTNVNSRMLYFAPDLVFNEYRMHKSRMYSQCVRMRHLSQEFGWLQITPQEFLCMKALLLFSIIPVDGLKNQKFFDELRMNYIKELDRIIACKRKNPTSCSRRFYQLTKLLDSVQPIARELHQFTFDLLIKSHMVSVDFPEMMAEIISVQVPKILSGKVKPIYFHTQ
# Assay: qHTS assay to identify small molecule antagonists of the androgen receptor (AR) signaling pathway (AID 743035; active = well fitted inhibition curve with a large enough effect in the signal ratio in the repeat runs, not every such curve was filed as active; inconclusive = weak or mixed curves, or effect the other way; inactive = no such curve, though single readings can be large or run the other way; the % refers to the signal ratio)
# Details: HEK293 AR-UAS-bla, R1881-stimulated, beta-lactamase FRET, 16 h; series mostly up to 58.5 µM
# Outline: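 Using qHTS, AR-UAS-bla GripTite HEK293 cells received compound, then R1881, and were cultured 16 h at 37C/5% CO2 before a 2 h room-temperature LiveBLAzer B/G FRET substrate step and fluorescence measurement.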
row,Structure (SMILES),Potency
1,CCOC(=O)C1(c2ccccc2)CCN(CCC(C#N)(c2ccccc2)c2ccccc2)CC1,active: 10.7 µM and active: 13.4 µM
2,CCCCCCCCCCOC(=O)c1ccccc1C(=O)OCCCCCCCCCC,inconclusive: 13.8 µM
3,CO/C=C(/C(=O)OC)c1ccccc1Oc1cc(Oc2ccccc2C#N)ncn1,inconclusive: 26.2 µM
4,Oc1c(Br)c(Br)c(Br)c(Br)c1Br,"inconclusive: 5.53 µM [rising, full curve]"
5,Cc1cc(C(C)(C)c2ccc(O)c(C)c2)ccc1O,"inconclusive: 7.39 µM [rising, full curve, poor fit]"
6,CCOP(=S)(OCC)Oc1cc(C)nc(N(CC)CC)n1,inactive
7,CO/N=C(/C(=O)OC)c1ccccc1COc1ccccc1C,inconclusive: 13.8 µM
8,Oc1cc(Cl)c(Cl)c(Cl)c1Cl,"inconclusive: 3.39 µM [rising, full curve]"
9,CC(Oc1ccc(Oc2ncc(C(F)(F)F)cc2Cl)cc1)C(=O)O (centres undefined),"inconclusive: 54.9 µM [rising, single point]"
10,COP(=S)(OC)Oc1cc(Cl)c(Br)cc1Cl,"inconclusive: 12.3 µM [rising, partial curve]"
11,CCCC1COC(Cn2cncn2)(c2ccc(Cl)cc2Cl)O1 (centres undefined),active: 49.9 µM and active: 43.6 µM
12,O=[N+]([O-])c1ccc2ccc3cccc4ccc1c2c34,"inconclusive: 0.0012 µM [falling, full curve, poor fit]"
13,IC(I)=C(I)I,"inconclusive: 19.5 µM [rising, partial curve, poor fit]"
14,COP(=O)(OC)O/C(=C/Cl)c1cc(Cl)c(Cl)cc1Cl,active: 18.4 µM
